Patent US20260256712A1, “COMPOUNDS FOR INHIBITING GRAM-POSITIVE BACTERIA” (priority 2022, published 2026)

These compounds were tested on B. subtilis 1S-75 (assay: Zone inhibition assay (ZIA), B. subtilis). Conditions: filter disk with 30 nmoles compound; control disks 100 μg carbenicillin or 50 μg ampicillin; overnight 30° C.
Format: cell-based, Bacillus subtilis
Design: key: no halo NA; *: one; **: two; ***: three; ****: four; *****: five stars corresponding to the largest halo

Compound | size of halo, B. subtilis
CC1(C)S[C@@H]2[C@H](NC(=O)[C@H](N)c3ccccc3)C(=O)N2[C@H]1C(=O)O [ampicillin] | *****
CC1(C)S[C@@H]2[C@H](NC(=O)C(C(=O)O)c3ccccc3)C(=O)N2[C@H]1C(=O)O (some centres unmarked) [carbenicillin] | ****
C[n+]1cc2c3c(ccc2c2ccc4cc5c(cc4c21)OCO5)OCO3 [sanguinarine chloride] | ****
CC[C@@H]1Cc2cc(O)ccc2C2=C1c1ccc(O)cc1C[C@H]2CC [RR-THC, (R,R)-tetrahydrochrysene] | ***
Cc1cc2c(C(C)C)c(O)c(O)c(C=O)c2c(O)c1-c1c(C)cc2c(C(C)C)c(O)c(O)c(C=O)c2c1O [gossypol] | **
C[C@H]1c2cccc(O)c2C(=O)C2=C(O)[C@]3(O)C(=O)C(C(N)=O)=C(O)[C@@H](N(C)C)[C@@H]3[C@@H](O)[C@@H]21 [doxycycline] | *****
CN(C)c1ccc(O)c2c1C[C@H]1C[C@H]3[C@H](N(C)C)C(O)=C(C(N)=O)C(=O)[C@@]3(O)C(O)=C1C2=O [minocycline] | *****
Oc1ccc2ccccc2c1SSc1c(O)ccc2ccccc12 [IPA-3] | **
